8 molecules from publication PMC5796741 can be followed below.

Sequences and labels used below:
T1: mesencephalic astrocyte-derived neurotrophic factor (MANF), expressed in HEK293 cells (human) (UniProt P55145)
T1 sequence: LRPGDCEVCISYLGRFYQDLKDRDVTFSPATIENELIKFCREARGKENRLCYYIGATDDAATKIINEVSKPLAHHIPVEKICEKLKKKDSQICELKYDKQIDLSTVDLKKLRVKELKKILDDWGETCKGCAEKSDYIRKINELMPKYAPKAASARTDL

T2: mesencephalic astrocyte-derived neurotrophic factor (MANF) in ARPE-19 cells (human) (UniProt P55145)
T2 sequence: T1 sequence

B1: human bestrophin1 (Best1), wild type, expressed in HEK293 cells (protein, UniProt O76090 1-585)
chain: MTITYTSQVANARLGSFSRLLLCWRGSIYKLLYGEFLIFLLCYYIIRFIYRLALTEEQQLMFEKLTLYCDSYIQLIPISFVLGFYVTLVVTRWWNQYENLPWPDRLMSLVSGFVEGKDEQGRLLRRTLIRYANLGNVLILRSVSTAVYKRFPSAQHLVQAGFMTPAEHKQLEKLSLPHNMFWVPWVWFANLSMKAWLGGRIRDPILLQSLLNEMNTLRTQCGHLYAYDWISIPLVYTQVVTVAVYSFFLTCLVGRQFLNPAKAYPGHELDLVVPVFTFLQFFFYVGWLKVAEQLINPFGEDDDDFETNWIVDRNLQVSLLAVDEMHQDLPRMEPDMYWNKPEPQPPYTAASAQFRRASFMGSTFNISLNKEEMEFQPNQEDEEDAHAGIIGRFLGLQSHDHHPPRANSRTKLLWPKRESLLHEGLPKNHKAAKQNVRGQEDNKAWKLKAVDAFKSAPLYQRPGYYSAPQTPLSPTPMFFPLEPSAPSKLHSVTGIDTKDKSLKTVSSGAKKSFELLSESDGALMEHPEVSQVRRKTVEFNLTDMPEIPENHLKEPLEQSPTNIHTTLKDHMDPYWALENRDEAHS
B2: Glu300Asp-mutated Best1, expressed in HEK293 cells (protein, UniProt O76090 1-585)
chain: B1 chain with E300D
B3: Val86Met-mutated Best1, expressed in HEK293 cells (protein, UniProt O76090 1-585)
chain: B1 chain with V86M
B4: Arg218Ser-mutated Best1, expressed in HEK293 cells (protein, UniProt O76090 1-585)
chain: B1 chain with R218S
B5: Arg218Ser-mutated Best1, in a stable ARPE-19 line (protein, UniProt O76090 1-585)
chain: B1 chain with R218S
B6: Val86Met-mutated Best1, in a stable ARPE-19 line (protein, UniProt O76090 1-585)
chain: B1 chain with V86M
B7: human bestrophin1 (Best1), wild type, in a stable ARPE-19 line (protein, UniProt O76090 1-585)
chain: B1 chain
B8: Glu300Asp-mutated Best1, in a stable ARPE-19 line (protein, UniProt O76090 1-585)
chain: B1 chain with E300D

Positions count from the first letter of the chain named. No constants are given. Whether binding was seen depends on the method and setting. In cells and extracts the contact can be indirect. Some results given as binding are weak or reduced against the parent protein; the word gives no strength.

In one test the target is T1, mesencephalic astrocyte-derived neurotrophic factor (MANF), expressed in HEK293 cells (human). Put plainly: co-IP; lysates from HEK293 cells expressing Best1 and MANF; Best1 detected in the precipitated immunocomplexes.
On to B1, for which the binding entry is “binds”.
B2: the binding result is given as “no binding”.
As to B3, the binding result is on record as “binds weakly”.
As to B4, the binding entry was “no binding”.

The target of a further test is T2, mesencephalic astrocyte-derived neurotrophic factor (MANF) in ARPE-19 cells (human). Put plainly: proximity ligation; Duolink proximity ligation assay (DPLA) kit; stable lines prepared from ARPE-19 expressing wt Best1 or mutated variants.
In the case of B5, the binding entry is recorded as “no binding”.
As for B6, the binding result is recorded as “binds weakly”.
As for B7, the binding entry was “binds”.
Still for that read-out and setting: then B8, with “no binding”.
